The densities may have been worked out from excess volumes.
Experiment: xn = mol fraction of the nth substance listed
Conditions: 100 kPa

CCOC(=O)OCC + CCCC[N+]1(C)CCCC1.O=S(=O)([N-]S(=O)(=O)C(F)(F)F)C(F)(F)F
x2 = 0
Conditions | mass density [kg/m3]
293.15 K | 974.6
298.15 K | 969
303.15 K | 963.2
308.15 K | 957.7
313.15 K | 951.9
318.15 K | 946

CCCC[N+]1(C)CCCC1.O=S(=O)([N-]S(=O)(=O)C(F)(F)F)C(F)(F)F + CCOC(=O)OCC
mass density [kg/m3]
Conditions | 293.15 K | 298.15 K | 303.15 K | 308.15 K | 313.15 K | 318.15 K | 323.15 K
x1 = 0.0251 | 1002.4 | – | 991.3 | – | 980.2 | 974.5 | 968.7
x1 = 0.0556 | – | 1027.9 | 1022.2 | 1016.9 | 1011.3 | 1005.6 | 1000
x1 = 0.1001 | – | 1067.3 | 1061.7 | 1056.4 | – | 1045.5 | –
x1 = 0.1506 | 1112.1 | 1106.9 | 1101.5 | 1096.5 | 1091.1 | 1085.9 | 1080.6
x1 = 0.2 | – | 1141.5 | – | 1131 | 1126 | 1120.5 | 1115.2
x1 = 0.2973 | 1202.1 | 1197.1 | 1192 | 1187.2 | 1182.3 | 1177.3 | 1172.4
x1 = 0.349 | 1226.8 | 1222 | 1217 | 1212.3 | 1207.5 | 1202.6 | 1197.9
x1 = 0.4 | 1248.5 | 1243.8 | 1238.7 | 1234.2 | 1229.5 | 1224.7 | 1220.1
x1 = 0.4998 | – | 1280.8 | 1276 | – | 1266.8 | 1262.1 | 1257.4
x1 = 0.6002 | 1316.2 | 1311.4 | 1306.6 | 1302.1 | 1297.5 | 1293 | 1288.5
x1 = 0.6985 | 1341.1 | 1336.6 | 1332 | 1327.7 | 1323.1 | 1318.5 | 1313.8
x1 = 0.8006 | 1363.2 | 1358.8 | 1354.1 | 1349.7 | 1345.3 | 1340.8 | –
x1 = 0.8934 | – | 1376.2 | 1371.7 | – | 1363.1 | 1358.6 | 1354.2
x1 = 1 | 1398.4 | 1393.8 | 1389.4 | 1385.3 | 1380.9 | 1376.5 | 1372.2

From a compilation of properties of binary mixtures (doi:10.1021/acs.jced.9b00738)
